# Assay results as given in PubChem BioAssay AID1347073 (National Center for Advancing Translational Sciences (NCATS), 2019).
# Screen size: about 45,000 compounds; about 200 (0.44%) were called active. Inconclusive results (about 7%) are left out. Calls come from the whole dose curve; as a rule, active = well fitted activation curve with a large enough effect; inconclusive = small, poorly fitted or top-dose-only effect; inactive = no such curve, though single readings can be large or run the other way. The list shows a part of the results.
# Assay: qHTS of TDP-43 Inhibitors: NCGC Sytravon Library Screen; note: 0% is about no effect; nearly all actives have a fitted effect of over 55% in size
# Conditions: yeast TDP-43 toxicity rescue, BacTiter-Glo growth, 24 h; series mostly up to 46.1 µM; growth rescue (activation): at the top concentration
# Outline: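 TDP-43-expressing yeast, pregrown in raffinose, seeded at OD600 0.02 in galactose medium with compound for 24 hr at 30 deg C. Growth read by BacTiter-Glo luminescence, so rescue of toxicity appears as activation.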
row,SMILES,growth rescue (activation)
1,CC(C)(C)NC(=O)CN(C(=O)c1snc(C(=O)NC2CCCCC2)c1N)c1ccc(F)cc1,inactive: -18.1%
2,O=C1CN(C(=O)COC(=O)/C=C/c2ccc(OC(F)F)cc2)c2ccccc2N1,inactive: 13.6%
3,O=C(Nc1nc(-c2cccnc2)cs1)c1ccc([N+](=O)[O-])cc1,inactive: 8.3%
4,Cc1nnsc1NC(=O)OCc1ccc(C(C)(C)C)cc1,inactive: 20.1%
5,CCOC(=O)c1c(NC(=O)CN2C(=O)NC3(CCC(CC)CC3)C2=O)sc(C)c1-c1ccc(C)cc1 (configuration not stated),inactive: 0.786%
6,COC(=O)c1ccc(C2/C(=C(\O)c3cccc(OC)c3)C(=O)C(=O)N2CCCN(C)C)cc1 (configuration not stated),inactive: 13.9%
7,Cc1ccc([N+](=O)[O-])c(OCCN2C(=O)NC(C)(C)C2=O)c1,inactive: -9.22%
8,COc1cc(NC(=O)CSc2nnnn2Cc2ccccc2)cc(OC)c1,inactive: -2.41%
9,COc1ccc(C2CC(c3ccc(F)cc3)n3nc(NS(C)(=O)=O)nc3N2)cc1 (configuration not stated),inactive: -1.02%
10,CCOC(=O)C1=C(C)Nc2ncnn2C1c1ccc(N(C)C)cc1 (configuration not stated),inactive: -0.423%
11,CC(C)c1ccc(C(=O)NCCCN2CCN(CCCNC(=O)c3ccc(C(C)C)cc3)CC2)cc1,inactive: 9.83%
12,CCCCn1c(N)c(N(CC)C(=O)c2cc(C)cc(C)c2)c(=O)[nH]c1=O,inactive: -7.55%
13,CC(O)(c1cccnc1)c1nc(-c2ccc(S(C)(=O)=O)cc2)cs1 (configuration not stated),inactive: 1.56%
14,O=C(Cc1ccc(Cl)cc1)NC1CC1,inactive: 7.62%
15,Cc1ccc(S(=O)(=O)N2CCCC2C(=O)OCc2nc3sc(C)c(C)c3c(=O)[nH]2)cc1 (configuration not stated),inactive: 21.9%
16,CCN1CCCC1CN(Cc1cc2ccc(C)cc2[nH]c1=O)C(=S)Nc1ccc(OC)cc1 (configuration not stated),inactive: -3.65%
17,CCN(c1ccccc1)S(=O)(=O)c1ccc(C(=O)NCCc2ccc(S(N)(=O)=O)cc2)cc1,inactive: 0.665%
18,Nc1nc(SCc2ccc(Br)cc2)n[nH]1,inactive: -11.5%
19,COc1ccc(/C(=C/c2ccc(OC(F)F)c(OC)c2)C(=O)O)cc1OC,inactive: 18.9%
20,CCNC(=O)C1CCCN(Cc2cc(C(F)(F)F)ccc2Cl)CC1 (configuration not stated),inactive: -13.1%
21,CCN(CC)S(=O)(=O)c1nnc(NC(=O)COc2ccccc2F)s1,inactive: 15.2%
22,O=C(COC(=O)CNS(=O)(=O)c1ccccc1)NC12CC3CC(CC(C3)C1)C2,inactive: -6.74%
23,O=C(COc1ccccc1)NNC(=O)c1cc2ccccc2oc1=O,inactive: 16.4%
24,CCc1cccc(C)c1Nc1c(-c2ccccc2)nc2sccn12,inactive: 29.8%
25,COC(=O)[C@@H](NC(=O)N1CCC(C)CC1)C(C)C,inactive: 3.9%
26,COC(=O)C1CCN(C(=O)Cn2nnc(-c3cccc(F)c3)n2)CC1,inactive: 7.69%

row,SMILES,growth rescue (activation)
1,CCOC(=O)C1(Cc2cccc(OC)c2)CCCN(C(=O)c2cc(C)on2)C1 (configuration not stated),inactive: 10.7%
2,COc1ccc(-n2nc(C(=O)NCC(=O)NCc3cccc(F)c3)c3ccccc3c2=O)cc1Cl,inactive: 3.59%
3,CNS(=O)(=O)c1cc(NC(=O)c2cncn2-c2ccccc2)ccc1C,inactive: 6.77%
4,Cc1c(C(=O)Nc2ccc(C(=O)O)cc2)cnn1C,inactive: 3.89%
5,Cn1cc(CNCc2cnc3ccccn23)c(-c2ccc(Oc3ccccc3)cc2)n1,inactive: -7.31%
6,Cc1ccc(C)n1NC(=O)c1ccccc1[N+](=O)[O-],inactive: 9.65%
7,COc1cc(/C=N/Nc2nc(Nc3ccccc3)nc(-n3nc(C)cc3C)n2)cc(OC)c1OC,inactive: 26.9%
8,Cc1cc(NC(=S)NC(=O)/C=C/c2ccc(S(=O)(=O)N3CCOCC3)cc2)ccc1Br,inactive: -6.09%
9,CS(=O)(=O)c1ccc(C(=O)Nc2cc(S(C)(=O)=O)ccc2Cl)cc1,inactive: -3.21%
10,O=C(CN1C(=O)COc2ccccc21)NCCN1CCOCC1,inactive: 2.27%
11,CN(C(=O)COC(=O)c1ccc(Br)c(S(=O)(=O)N2CCOCC2)c1)C1CCCCC1,inactive: 14.1%
12,O=C(O)CCCCCNc1ccc2nsnc2c1[N+](=O)[O-],inactive: 16.3%
13,COc1ccc(CC(NC(C)=O)C(=O)NC2CCN(C(=O)c3ccc(Cl)cc3)CC2)cc1 (configuration not stated),inactive: 13%
14,O=C(Nc1ccc(S(=O)(=O)Nc2ncccn2)cc1)C1CC(=O)N(c2ccccc2)C1 (configuration not stated),inactive: 1.12%
15,COc1ccc(S(=O)(=O)N2CCCCC2)cc1NC(=O)c1ccc([N+](=O)[O-])o1,inactive: 6.63%
16,CCOC(=O)c1c(-c2ccc(C)cc2)csc1NC(=O)c1cc2ccccc2oc1=O,inactive: 5.16%
17,CCOc1cc(CN2CCC(CO)(Cc3cccc(C(F)(F)F)c3)CC2)ccc1OC,inactive: -4.3%
18,COC(C(=O)Nc1ccc(Cl)cc1C)c1ccccc1 (configuration not stated),inactive: 26.5%
19,CC1(C(=O)NS(=O)(=O)Cc2ccccc2)CCN1C(=O)CCc1ccccc1 (configuration not stated),inactive: 12%
20,Cc1ccc(S(=O)(=O)N(C)C)cc1NC(=O)C1Cc2ccccc2CN1C(=O)c1ccco1 (configuration not stated),inactive: -7.23%
21,Cc1cccc(NS(=O)(=O)c2cc(C(=O)N3CCCC3)ccc2Cl)c1,inactive: 13.7%
22,CCN(CC)N=Nc1ccc(S(=O)(=O)Nc2nc(C)cc(C)n2)cc1,inactive: 3.4%
23,O=C(CCCN1C(=O)NC2(CCCC2)C1=O)Nc1ccc(F)cc1,inactive: 4.15%
24,COc1cc(C(=O)N/N=C/c2ccc(OC)c(CN3CCN(c4ccc(F)cc4)CC3)c2)ccc1O,inactive: -8.09%
25,CCOc1ccc(/C(O)=C2/C(=O)C(=O)N(c3ncccn3)C2c2ccc(Cl)cc2)cc1 (configuration not stated),inactive: -15.3%
26,CCN(CC)c1ccc(C=C2C(=O)OC(c3ccccc3)OC2=O)cc1 (configuration not stated),inactive: 5.84%
